Experimental data as given in article PMC6919601, “Identification of Plasmodium dipeptidyl aminopeptidase allosteric inhibitors by high throughput screening” (PLoS ONE, 2019).
The campaign covered roughly 110,000 compounds. About 230 (0.21%) showed an effect of 50% or more. This is one part of the list.

These molecules were tested against DPAP1 (Plasmodium falciparum, UniProt Q8IIJ9) (assay: primary screen, percent inhibition; read by cleavage of a fluorogenic dipeptide substrate; higher = more effect of the substance).
Parameters: species or system P. falciparum D10 trophozoite lysates; single well
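Note: 30 min substrate incubation versus DMSO and 10 µM JCP410 controls.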

DPAP1, sequence (Q8IIJ9 whole entry, looked up): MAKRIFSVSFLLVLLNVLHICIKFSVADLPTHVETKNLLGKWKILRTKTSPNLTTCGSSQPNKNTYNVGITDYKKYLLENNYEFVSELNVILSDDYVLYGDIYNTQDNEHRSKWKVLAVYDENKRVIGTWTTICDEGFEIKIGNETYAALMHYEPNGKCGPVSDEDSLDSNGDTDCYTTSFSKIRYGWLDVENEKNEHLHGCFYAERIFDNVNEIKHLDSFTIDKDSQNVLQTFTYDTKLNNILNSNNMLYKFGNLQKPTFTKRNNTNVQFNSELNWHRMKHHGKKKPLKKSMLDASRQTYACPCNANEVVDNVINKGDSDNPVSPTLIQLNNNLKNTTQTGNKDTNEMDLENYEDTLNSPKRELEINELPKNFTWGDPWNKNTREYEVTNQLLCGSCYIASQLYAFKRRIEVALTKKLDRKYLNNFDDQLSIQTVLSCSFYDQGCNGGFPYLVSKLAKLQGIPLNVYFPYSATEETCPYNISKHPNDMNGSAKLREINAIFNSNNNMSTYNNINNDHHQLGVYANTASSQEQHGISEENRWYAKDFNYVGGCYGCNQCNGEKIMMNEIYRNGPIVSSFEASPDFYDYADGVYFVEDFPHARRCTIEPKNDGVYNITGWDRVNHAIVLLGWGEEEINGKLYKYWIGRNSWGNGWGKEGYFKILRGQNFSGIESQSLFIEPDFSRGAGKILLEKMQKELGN

Row | Compound | % Inhibition @ 10 uM
1 | COc1cc(-c2ccc(NC(=O)c3cc4ccccc4cc3O)c(OC)c2)ccc1NC(=O)c1cc2ccccc2cc1O | -2.32%
2 | Cc1ccc2sc(-c3ccc(NC(=O)c4ccccc4Cl)cc3)nc2c1 | -7.87%
3 | CC1CC(C)CN(C(=O)CN2CCN(Cc3ccc(Cl)cc3)C2=O)C1 (stereo not drawn) | -0.984%
4 | CCOC(=O)C1=CN(C)C=C(C(=O)OCC)C1c1ccccc1OCc1ccccc1 | -3.23%
5 | Cc1n[nH]c(C)c1Sc1ccc(Cl)cc1 | 2.76%
6 | Cc1cc(Cl)ccc1NC(=O)C12CCC(C)(C(=O)C1=O)C2(C)C (stereo not drawn) | 1.78%
7 | COc1ccc2ncc(S(=O)(=O)c3ccc(C(C)C)cc3)c(O)c2c1 | -3.45%
8 | O=C(CSc1nc(-c2ccc(F)cc2)cc(C(F)(F)F)n1)NCC1CCCO1 (stereo not drawn) | -0.318%
9 | O=C(NCc1cccs1)c1cnn2c1NC(c1ccc(Br)cc1)CC2C(F)(F)F (stereo not drawn) | 0.161%
10 | CC1CCCC(NC(=O)c2ccc3snnc3c2)C1C (stereo not drawn) | 3.05%
11 | CN(C)c1ccc(NC(=O)c2cncc(Br)c2)cc1 | -4.49%
12 | Cc1ccc(NS(=O)(=O)c2ccc(F)cc2)c(C)c1 | -7.02%
13 | COc1ccc(C2CC3(CC(C)(C)NC(=S)N3)Oc3cc(O)cc(C)c32)cc1OC (stereo not drawn) | -2.5%
14 | CC(C)(C)OC(=O)N1CCC(c2cc(O)n3nc(-c4ccc(Cl)cc4)cc3n2)CC1 | -2.83%
15 | CN1CCN(C(=O)C2CCN(c3ncnc4c3nc3n4CCCCC3)CC2)CC1 | -4.77%
16 | Cc1c(C(c2ccco2)c2c(C)n(C)n(-c3ccccc3)c2=O)c(=O)n(-c2ccccc2)n1C | 3.83%
17 | COc1ccc(OC)c(S(=O)(=O)N2CCN(c3ncccn3)CC2)c1 | 1.67%
18 | Cc1ccccc1OCCCCCCN1CCNCC1 | -0.473%
19 | Cc1ccc(C(=O)Nc2cccc(C(F)(F)F)c2)cc1[N+](=O)[O-] | -0.771%
20 | CCc1ccc(-n2nc(C)c3c(C)cc(=O)n(CC(=O)NCc4ccc5c(c4)OCO5)c32)cc1 | 0.586%
21 | CCCCNC(=O)C1CCC(CNS(=O)(=O)c2ccccc2)CC1 (stereo not drawn) | 3.93%
22 | COc1ccccc1OCCSc1n[nH]c2nc3ccccc3n12 | -3.5%
23 | CC1=C(C(=O)Nc2ccccc2F)C(c2ccccc2Cl)C2=C(O)CCCC2=N1 (stereo not drawn) | 5.05%
24 | O=C(COc1ccccc1)NCCc1cccc(Cl)c1 | -0.95%
25 | CCN(CC)c1ccc(NC(=O)c2ccc(C)c(C)c2)cc1 | -3.92%
26 | COc1ccccc1N1CCN(CCCCN2C(=O)C3CCCN3C2=O)CC1 (stereo not drawn) | 3.04%

Row | Compound | % Inhibition @ 10 uM
27 | OCC1CCCN1Cc1c(Cl)cccc1Cl (stereo not drawn) | -3.15%
28 | COc1ccccc1NC(=O)CN(c1ccccc1OC)S(=O)(=O)c1ccccc1 | 2.45%
29 | N#CC1=C(N)OC2=C(C(=O)CCC2)C1c1ccc(F)c(F)c1 (stereo not drawn) | 2.36%
30 | CC1(NC(=S)N2CCOCC2)CCS(=O)(=O)C1 (stereo not drawn) | 5.75%
31 | O=C(CCCn1c(=O)c2cccn2c2cccnc21)NCC1CCCO1 (stereo not drawn) | 8.1%
32 | CCS(=O)(=O)N1CCC(C(=O)NCCOC)CC1 | 3.79%
33 | O=C1/C(=C/c2ccc(Br)cc2)N=C(c2ccccc2)N1c1ccccc1 | -8.99%
34 | O=C1C2=C(c3cc(O)ccc3O)CCCN2C(=O)CN1Cc1ccccc1 | 1.91%
35 | CCC(NC(=O)Nc1ccccc1)c1ccccc1 (stereo not drawn) | -0.744%
36 | CN1C(=O)C(=N)c2c3ccccc3c(O)c3c(Br)ccc1c23 | -7.39%
37 | CCOC(=O)N1CCN(C(c2ccncc2)c2c(C)[nH]c3ccccc23)CC1 (stereo not drawn) | 2.95%
38 | CCOC(=O)c1sc2nccc3c2c1N=CN3c1ccccc1 | -0.687%
39 | O=C(N/C(=C\c1ccccc1)C(=O)N1CCN(Cc2ccccc2)CC1)c1ccccc1 | -2.78%
40 | N#Cc1c(NC(=O)CSc2nc(N)cc(O)n2)sc2c1CCCCCC2 | 4.85%
41 | NCc1oc(-c2ccccc2)cc1C(=O)O | -2.5%
42 | CCOC(=O)N1CCC(NCc2ccc(Br)cc2)CC1 | 1.74%
43 | Cc1ccnc(NS(=O)(=O)c2ccc(NC(=O)c3ccc(Cl)cc3Cl)cc2)n1 | 7.5%
44 | O=C(Nc1cc(Cl)ccc1Cl)C(c1ccccc1)c1ccccc1 | -2.81%
45 | COc1ccc(C)cc1S(=O)(=O)N1CCN=C1c1ccccc1 | -0.643%
46 | CCOc1cc2c(c([N+](=O)[O-])c1)NC(c1ccccc1)C1CC=CC21 (stereo not drawn) | -6.7%
47 | COc1ccc(CNc2nc3ccccc3n2C)cc1 | 2.16%
48 | Fc1cccc(CN2CCN(C/C=C/c3ccccc3)CC2)c1 | 2.47%
49 | COc1ccccc1OCCn1c(SCC(N)=O)nc2ccccc21 | -6.22%
50 | CCCOC(=O)c1ccc(OCC(O)Cn2cnc3ccccc32)cc1 (stereo not drawn) | -1.06%
51 | Cc1cccc(NC(=O)/C=C/c2cccc([N+](=O)[O-])c2)c1 | 3%
